Data: the RNAGym collection of RNA variant scans (doi:10.7554/elife.90254)
The source gives no read counts; variants with many changes may rest on few reads.

B1: LINE1-mini (parent)
chain: GGCAGAGCUCAACACAGCGUGGCAAAGUGGCUGUGGCUAGACUGCC

Variants of: B1
Assay: self-cleavage, relative activity (ratio to wild type); higher = more cleavage; in vitro, sequencing; the parent is a self-cleaving ribozyme

Which self-cleavage does the source give for GGCAGAGCUCAACACAUCGUGGCAAAGAGGCUGUGACUAGACUGCA here?
Its self-cleavage is 0.03.

For GGCAGAGCUCAACACAGCGUGGUAAAGUGGAUGUAGCUAGACUGCC, which self-cleavage is on record?
Its self-cleavage is 0.02.

With GGCAGAGGUCAACACAGCGUGGGAAAGUGGCUGUGGCUAGACCGCC as the variant, how does the self-cleavage read?
Its self-cleavage is 0.02.

For GACAGAGCUGGACACACCGUGGCAAAGUAGCUGUGUCUAGACUGCC, which self-cleavage is on record?
Its self-cleavage is 0.03.

For GGCAGAGGUCAACACAGCGUGGCAAAGUGUCUGUGCCUAGACUGCC, which self-cleavage is on record?
Its self-cleavage is 0.06.

With AGCAGAGCUCAACCCAGCGUGGCAAAGUUGCUGUGGCUAGACUGCC as the variant, how does the self-cleavage read?
The self-cleavage was 0.19.

For GGAAGAGCUCAACAUAGCGUGGCAUAGUGGCUGUGGCUAGACUGCC, which self-cleavage is on record?
The self-cleavage was 0.33.

For GGCAGAGCUCUACACAGCGGGGCAAUGUGGCUGUGCCUAGACUGCC, which self-cleavage is on record?
The self-cleavage was 0.02.

Which self-cleavage does the source give for GGCAUAGCUCGACACAGCGUCGCAAAAUGGCUGUGGCUAGACUGCC here?
The self-cleavage was 0.01.

Which self-cleavage does the source give for GGCAGAGCUCAAAACAGCGUGGCAACGUGGCUGUGGCUAGACUGUC here?
Its self-cleavage is 0.1.

For GGCAGAGCUCACCACAGCGUGGCAAAGUGGGUGUGGAUAGACUGCC, which self-cleavage is on record?
Its self-cleavage is 0.19.

Which self-cleavage does the source give for GACAGAGCUCACCACAGCAUGGCAAAGUGGCUGUGGCUAGACUGCA here?
The self-cleavage was 0.06.

For GGCAGAUCUCAACACAUCGUGGCAAAGUGGCUGUGGCAAGACUGCA, which self-cleavage is on record?
Its self-cleavage is 0.04.

Which self-cleavage does the source give for GGCAGAACGGAGCACAGCGUGGCAAAGUAGCUGUGGCUAGACUGCC here?
Its self-cleavage is 0.

With GGCAGAGCUCAACACAGCGUGGCAACGUGGAUGUGGGUCGACUGCC as the variant, how does the self-cleavage read?
Its self-cleavage is 0.

With GGCCGAGCUCAACACAGCUUGGCAACGUGGCUGAGGCUAGAGGGCC as the variant, how does the self-cleavage read?
Its self-cleavage is 0.03.

Which self-cleavage does the source give for AGCAGAGCUCAACACAGCGUGGCAUAGUGGCUGUGGCUAGACUCCC here?
Its self-cleavage is 0.29.

Which self-cleavage does the source give for GGCACAGCUUAACAAAGAGUGGCAGAGUGGCUGUGGCUAGACUGCC here?
The self-cleavage was 0.04.

For GGCAGAGCUCAACACAGCGUGGUAAAGUGGCGGUGGCAAGCCUGCC, which self-cleavage is on record?
Its self-cleavage is 0.

With GGCAGAGCUCAGCACAGCGUGACAAAGUGGCUGUGGCUCGACUGCC as the variant, how does the self-cleavage read?
Its self-cleavage is 0.01.

Which self-cleavage does the source give for GGCAGAUCUCAACACAGCGUGGCAAAGUGGUUGUGGCGAGACUGCC here?
The self-cleavage was 0.02.

For GGCAGAGCUCAACGCAGCGUGGCGAAGUUGCUGUGGCUAGACUGGU, which self-cleavage is on record?
The self-cleavage was 0.03.

With GGAACUGCUCAACACAGCGUGGCAAAGUGGCUGUGGCUAGACUGCC as the variant, how does the self-cleavage read?
The self-cleavage was 0.9.

Which self-cleavage does the source give for GGCAGAGCCCUACAGAGCGUGGUAAAGUGGCUAUGGCUAGACUGAC here?
Its self-cleavage is 0.01.

Which self-cleavage does the source give for GGAAAAGAUCAACACAGCGUGGCAAAGUGGCUGUGGGUAGACUGCC here?
The self-cleavage was 0.99.

Which self-cleavage does the source give for GGCAGAGCUCAACACAGCGAUGUAAGGUGGCUGUGGCUAGAAUGCC here?
Its self-cleavage is 0.28.

Which self-cleavage does the source give for GCCAGGGCUCAACACAGCGUGCCAAAGUGGCUGUGGGUAGACUGCC here?
Its self-cleavage is 0.01.

For GGCAGAGCGCUACACAGUGUCGCAAAGAGGCUGUGGCUAGCCUGCC, which self-cleavage is on record?
Its self-cleavage is 0.01.

For GGCAGAGCUCAACACAGCGUGGCACAGUGGCUGUGGCUACACUGGC, which self-cleavage is on record?
Its self-cleavage is 0.03.

For GGCAGAGCCCAACACAGCGUGGCAAAGUGGUUGUGGCUAGGCUGCC, which self-cleavage is on record?
The self-cleavage was 0.

With GGCAGCGCUCAAAACGGCGUGGCAAAGUCGUUGUGGCUAGACUGCC as the variant, how does the self-cleavage read?
Its self-cleavage is 0.

For GGCGGAGCUCAACACAGCGUGGCAAAUUGGCUAUGGCUAGACUGCC, which self-cleavage is on record?
The self-cleavage was 0.04.

With GAUAGAGCUCAACACAGCGUGGCAAAGCGGCUGUGGCUAGACUGCC as the variant, how does the self-cleavage read?
The self-cleavage was 1.04.

With GGCAGAGCUCAACACGGCGUGGCAAAUUGGCUGUGGCAAGACUGCC as the variant, how does the self-cleavage read?
The self-cleavage was 0.24.

Which self-cleavage does the source give for GGCAGAACUCAACUCAGCGUGGCAAAGUGGCUGUGGCUAGAGUGCC here?
The self-cleavage was 0.08.

Which self-cleavage does the source give for GGCAGUGCUCAACACAGCGUGGCGAAGUGGCUGUUGCUAGACUGCC here?
Its self-cleavage is 0.1.

For GCCAGAGCUAAACACAGCGUGGCAAAGUGGCUGAGGCUAGACUGCC, which self-cleavage is on record?
The self-cleavage was 0.02.

With GGCACAGCCCAACACAGCGUUGCAAAGUGGCUGUGGCUAGACUGCC as the variant, how does the self-cleavage read?
The self-cleavage was 0.03.

With GGCAGAGCCCAACACAGCGUGGCAAAGUGGCUGUAGCUAGAAAGCC as the variant, how does the self-cleavage read?
Its self-cleavage is 0.04.

Which self-cleavage does the source give for GGCAGAGCUCAACACAGCGUGGCAAAGUGGGUGUGGCUAGACUGAG here?
The self-cleavage was 0.03.

For GGCAGAUCUCAAAAAAGUGUGGCAAAGUGGCCGUGGCUAGACUGCU, which self-cleavage is on record?
Its self-cleavage is 0.09.

For GGCAGAGAUCAACACAGCGUGGCAGAGUGGCUGUGGCUAGACCGCC, which self-cleavage is on record?
The self-cleavage was 0.49.

With GGCAGAGCGCACCACAGCGUGGCAAAGUGGCUGUUGCUAGACUGCA as the variant, how does the self-cleavage read?
Its self-cleavage is 0.

Which self-cleavage does the source give for GGCAGCGCUCAACACAGCGUGGCAAAGUGGCUAUGGCUGGACUACC here?
The self-cleavage was 0.03.

For GGCAGAGCUCAACACAGCCUGGCAAUGUGGCGGUGGCUAGACUGCC, which self-cleavage is on record?
The self-cleavage was 0.38.

Which self-cleavage does the source give for GGAAGGGCUCAACACAGCGUGGCAAAAUGGCUGUAGCUAGACUGCC here?
Its self-cleavage is 0.12.

Which self-cleavage does the source give for GGCAGAGCUUAACACAGCGCGGCAAAGUGCCUGUGGCUAGACUGCC here?
Its self-cleavage is 0.35.

With AGCAGAGCUCAACACAUCGUGGCAAAGAGGGUGUGGCUAGACUGCC as the variant, how does the self-cleavage read?
Its self-cleavage is 0.14.

For GGCAGAGCACGACACAGCGUAGCAAAGUGGCUGUGGCUAGUCUGCC, which self-cleavage is on record?
The self-cleavage was 0.02.

With GGCAGAGCUCAACAGAGCGUGGCAAAGUGGUUGUGGCUAGAUUGCC as the variant, how does the self-cleavage read?
The self-cleavage was 0.

With GGAAGAGCUCAACACAGCGAGGCAAAGUGGCUGUGGAUAGACUGCC as the variant, how does the self-cleavage read?
The self-cleavage was 0.21.

Which self-cleavage does the source give for GGCAGAGCUAAACACAGCGUUGCCAAGUGGCUGGGGCUGGACUGCC here?
Its self-cleavage is 0.01.

For GGUCGAGCUCAACACAGCGUGGCAAACUGGCUGUGGCUAGACCGCA, which self-cleavage is on record?
The self-cleavage was 0.07.

Which self-cleavage does the source give for GGCAGAGCUCAACACAGCGUGGCAAAACGCCUGUGGCUAGACUGCC here?
Its self-cleavage is 0.66.

For GGCAGAGCUCAACACAGCGUGGAAAAGUGCGUGUGGCUAGACUACC, which self-cleavage is on record?
The self-cleavage was 0.04.

With GGCCGAGCUCAACACAGCGUGGCACAGUGGCUGUGGCUAGGCGGCC as the variant, how does the self-cleavage read?
The self-cleavage was 0.
